Out of some 310,000 compounds screened, about 14,000 (4.5%) showed an effect of 50% or more. The effect is printed as a negative number. The list shows a part of the results.
Each molecule was assayed against human ether-à-go-go-related gene (hERG) potassium channel (human, UniProt Q12809) (assay: primary screen, population patch clamp on CHO cells stably expressing hERG).
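Note: peak tail current of the secondary pulse compared with the same well before compound.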

human ether-à-go-go-related gene (hERG) potassium channel, sequence (Q12809 whole entry, looked up): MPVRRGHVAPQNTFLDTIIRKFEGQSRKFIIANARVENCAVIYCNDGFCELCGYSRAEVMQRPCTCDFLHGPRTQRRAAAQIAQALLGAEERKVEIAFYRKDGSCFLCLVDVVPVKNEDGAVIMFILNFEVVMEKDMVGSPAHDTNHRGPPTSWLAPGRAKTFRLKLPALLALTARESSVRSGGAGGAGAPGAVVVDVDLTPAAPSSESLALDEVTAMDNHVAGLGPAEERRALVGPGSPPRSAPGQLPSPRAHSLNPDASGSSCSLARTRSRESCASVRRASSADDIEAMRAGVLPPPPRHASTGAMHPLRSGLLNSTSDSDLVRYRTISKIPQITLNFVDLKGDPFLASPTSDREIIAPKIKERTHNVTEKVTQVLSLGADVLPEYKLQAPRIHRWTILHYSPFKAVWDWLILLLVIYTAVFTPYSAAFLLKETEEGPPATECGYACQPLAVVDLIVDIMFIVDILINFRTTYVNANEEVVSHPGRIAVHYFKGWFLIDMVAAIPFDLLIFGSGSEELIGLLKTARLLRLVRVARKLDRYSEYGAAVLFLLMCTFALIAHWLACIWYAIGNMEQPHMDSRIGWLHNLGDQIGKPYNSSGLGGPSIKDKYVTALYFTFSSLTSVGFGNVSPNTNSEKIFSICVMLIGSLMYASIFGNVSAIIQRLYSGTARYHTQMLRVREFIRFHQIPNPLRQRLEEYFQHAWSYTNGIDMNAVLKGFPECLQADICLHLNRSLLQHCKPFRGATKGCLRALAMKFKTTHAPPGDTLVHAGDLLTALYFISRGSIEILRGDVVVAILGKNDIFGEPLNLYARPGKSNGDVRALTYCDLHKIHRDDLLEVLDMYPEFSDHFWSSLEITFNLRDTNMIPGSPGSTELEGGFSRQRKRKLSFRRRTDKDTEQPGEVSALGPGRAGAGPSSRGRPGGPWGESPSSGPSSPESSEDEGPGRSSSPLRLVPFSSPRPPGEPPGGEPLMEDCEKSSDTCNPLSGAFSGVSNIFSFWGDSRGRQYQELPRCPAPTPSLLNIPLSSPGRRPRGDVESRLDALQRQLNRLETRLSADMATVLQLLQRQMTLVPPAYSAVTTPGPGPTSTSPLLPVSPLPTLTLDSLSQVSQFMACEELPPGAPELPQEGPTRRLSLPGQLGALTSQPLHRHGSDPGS

How did the “hERG current change (%, negative = inhibition) at 10uM” value turn out when CC(O)(CS(=O)(=O)c1ccccc1)C(=O)Nc1cccc(C(F)(F)F)c1 (stereo not drawn) was run?
The value was -14.9%.

How did the “hERG current change (%, negative = inhibition) at 10uM” value turn out when Cc1csc(=O)n1CC(=O)OCC(=O)c1c(N)n(C)c(=O)n(C)c1=O was run?
The value was 4.36%.

With CCCCCCNS(=O)(=O)c1nc2nc(C)cc(C)n2n1 as the molecule, how does the “hERG current change (%, negative = inhibition) at 10uM” value read?
The value was -8.27%.

For Cc1ccc(-n2cnc3scc(-c4cccs4)c3c2=O)cc1, which “hERG current change (%, negative = inhibition) at 10uM” value is on record?
The value was 3.67%.

For CCC(=O)N1CCN(c2cc(N3CCCC3)c(F)cc2[N+](=O)[O-])CC1, which “hERG current change (%, negative = inhibition) at 10uM” value is on record?
The value was -10.4%.

For OCCN1CCN(C(=S)Nc2ccc(SC(F)F)cc2)CC1, which “hERG current change (%, negative = inhibition) at 10uM” value is on record?
Its value is -18.4%.

Cc1ccc2nsnc2c1S(=O)(=O)N1CCN(C)CC1 was tested. Which “hERG current change (%, negative = inhibition) at 10uM” value did it give?
Its value is 3.83%.

CC(C)c1ccccc1NC(=S)NC1CCN(Cc2ccccc2)CC1 was tested. Which “hERG current change (%, negative = inhibition) at 10uM” value did it give?
Its value is -47.8%.

How did the “hERG current change (%, negative = inhibition) at 10uM” value turn out when O=S(=O)(c1cccc(Br)c1)N1CCN(CCc2ccccc2)CC1 was run?
Its value is 17.4%.

Which “hERG current change (%, negative = inhibition) at 10uM” value does the source give for Cc1cccc(-c2nc(CS(=O)CC(=O)NCCc3ccccc3)c(C)o2)c1 (stereo not drawn) here?
The value was -7.14%.

CCOC(=O)C1=C(C)OC(N)=C(C#N)C12C(=O)Nc1ccc(C)cc12 (stereo not drawn) was tested. Which “hERG current change (%, negative = inhibition) at 10uM” value did it give?
Its value is 5.89%.

Which “hERG current change (%, negative = inhibition) at 10uM” value does the source give for COc1cc(/C=C/C(=O)OCC(=O)NCC2CCCCC2)ccc1O here?
Its value is -10.6%.

Which “hERG current change (%, negative = inhibition) at 10uM” value does the source give for CCCCOc1ccc(C(=O)Nc2ccc(SC(F)F)cc2)cc1OC here?
Its value is 2.23%.

How did the “hERG current change (%, negative = inhibition) at 10uM” value turn out when CCn1c(N2CCN(CC(=O)c3c(C)n(C)c4ccccc34)CC2)nc2c1c(=O)[nH]c(=O)n2C was run?
Its value is 5.34%.

CC(C)(CNC(=O)c1ccc(-c2cccc(C(F)(F)F)c2)o1)N1CCOCC1 was tested. Which “hERG current change (%, negative = inhibition) at 10uM” value did it give?
The value was -76.3%.

How did the “hERG current change (%, negative = inhibition) at 10uM” value turn out when Cc1nc(-c2ccc(Cl)cc2)sc1C1(C)CC(c2ccc(C#N)cc2)=NO1 (stereo not drawn) was run?
Its value is -29.2%.

How did the “hERG current change (%, negative = inhibition) at 10uM” value turn out when Cc1ccccc1NC(=O)CN(C)S(=O)(=O)c1ccc(-c2ccc(=O)[nH]n2)s1 was run?
Its value is -78.6%.

How did the “hERG current change (%, negative = inhibition) at 10uM” value turn out when C[C@]12C=CC(=O)C=C1CC[C@@H]1C2CC[C@]2(C)OC(=O)CCC12 (stereo partly drawn) was run?
The value was 0.661%.

For CCOC(=O)c1c(CC(C)C)csc1/N=C/C1C(=O)CC(C)(C)CC1=O, which “hERG current change (%, negative = inhibition) at 10uM” value is on record?
The value was 14.3%.

Which “hERG current change (%, negative = inhibition) at 10uM” value does the source give for COc1ccc(-c2ccc(=O)n(CC(=O)NC3CCc4ccccc43)n2)cc1OC (stereo not drawn) here?
Its value is -15.9%.

With CC(=O)NC(Cc1ccc(N(CCCl)CCCl)cc1)C(=O)O (stereo not drawn) as the molecule, how does the “hERG current change (%, negative = inhibition) at 10uM” value read?
Its value is -0.713%.

For CC1CN(C(C)C)C(C)CC1OC(=O)c1ccccc1 (stereo not drawn), which “hERG current change (%, negative = inhibition) at 10uM” value is on record?
Its value is 15.7%.

For O=C(CN1CCN(C(=O)c2ccco2)CC1)Nc1ccc(Cl)c(C(F)(F)F)c1, which “hERG current change (%, negative = inhibition) at 10uM” value is on record?
The value was -67.1%.

Cc1nc(-c2ccc(S(=O)(=O)N3CCCCCC3)cc2)cs1 was tested. Which “hERG current change (%, negative = inhibition) at 10uM” value did it give?
The value was 11.7%.

O=C(O)c1cccc(CN2C(=O)SC(Nc3cccc4ccccc34)C2=O)c1 (stereo not drawn) was tested. Which “hERG current change (%, negative = inhibition) at 10uM” value did it give?
Its value is -3.22%.

How did the “hERG current change (%, negative = inhibition) at 10uM” value turn out when Cc1cc(C(=O)CSc2nnnn2-c2ccccc2)c(C)n1CC1CCCO1 (stereo not drawn) was run?
Its value is -1.92%.

With COCCN(CC(=O)Nc1cccc(C)c1C)C(=O)c1ccc2ccccc2n1 as the molecule, how does the “hERG current change (%, negative = inhibition) at 10uM” value read?
The value was -0.121%.

For O=C(Nc1cc(C(F)(F)F)ccc1F)C1CCCCC1, which “hERG current change (%, negative = inhibition) at 10uM” value is on record?
Its value is -7.8%.

With Cc1ccc(C(=O)COC(=O)CNC(=O)Cc2ccccc2)cc1 as the molecule, how does the “hERG current change (%, negative = inhibition) at 10uM” value read?
The value was -2.44%.

How did the “hERG current change (%, negative = inhibition) at 10uM” value turn out when CCOC(=O)CNC(=O)C(Cc1ccccc1)NS(=O)(=O)c1ccc2c(c1)CCC(=O)N2 (stereo not drawn) was run?
The value was -13.6%.

How did the “hERG current change (%, negative = inhibition) at 10uM” value turn out when Cc1cc2nnc(SCC(=O)NC3CCCCC3)n2c(N)n1 was run?
Its value is 9.47%.

CCCCNC(=O)c1c(O)c2cccc3c2n(c1=O)CCC3 was tested. Which “hERG current change (%, negative = inhibition) at 10uM” value did it give?
Its value is -2.3%.

O=c1cc(CSc2nnc(COc3cccc4ccccc34)o2)c2ccccc2[nH]1 was tested. Which “hERG current change (%, negative = inhibition) at 10uM” value did it give?
The value was 22.2%.

CC(C)n1c(CCCO)nc2ccccc21 was tested. Which “hERG current change (%, negative = inhibition) at 10uM” value did it give?
The value was -11.7%.

O=C(Oc1ccc(C(=S)N2CCCCC2)cc1)c1ccccc1F was tested. Which “hERG current change (%, negative = inhibition) at 10uM” value did it give?
Its value is 9.75%.

Which “hERG current change (%, negative = inhibition) at 10uM” value does the source give for CC(C)(C)C(=O)C1=C(O)C(=O)N(Cc2ccccc2)C1c1ccccc1F (stereo not drawn) here?
Its value is 25.2%.

How did the “hERG current change (%, negative = inhibition) at 10uM” value turn out when COc1cc(NS(=O)(=O)c2csc(C(N)=O)c2)cc(OC)c1 was run?
The value was 20%.

With CCOC(=O)C1(CCOc2ccccc2)CCN(Cc2cccc(OC)c2)CC1 as the molecule, how does the “hERG current change (%, negative = inhibition) at 10uM” value read?
The value was -76.1%.

For COC(=O)c1sccc1NC(=O)CC1C(=O)NCCN1C(=O)Nc1ccc(OCc2ccccc2)cc1 (stereo not drawn), which “hERG current change (%, negative = inhibition) at 10uM” value is on record?
Its value is -37.5%.

CC(C)Cc1ccc(CN2CCCC(NC(=O)CCCN3CCCC3=O)C2)cc1 (stereo not drawn) was tested. Which “hERG current change (%, negative = inhibition) at 10uM” value did it give?
Its value is -25.8%.

CCCCn1c(N)c(N(CCC(C)C)C(=O)c2ccc(-c3ccc([N+](=O)[O-])cc3)o2)c(=O)[nH]c1=O was tested. Which “hERG current change (%, negative = inhibition) at 10uM” value did it give?
The value was 2.62%.

How did the “hERG current change (%, negative = inhibition) at 10uM” value turn out when Oc1ccc(NC(=S)N=Nc2c(O)[nH]c3ccccc23)cc1 was run?
Its value is -2.83%.

With COc1ccc(-c2ncncc2-c2ccc(OC)c(OC)c2)c(O)c1 as the molecule, how does the “hERG current change (%, negative = inhibition) at 10uM” value read?
The value was 3.42%.

Which “hERG current change (%, negative = inhibition) at 10uM” value does the source give for COc1ccc(C2C(C(=O)/C=C/c3ccco3)=C(O)C(=O)N2CCN2CCOCC2)cc1OC (stereo not drawn) here?
Its value is 8.67%.

How did the “hERG current change (%, negative = inhibition) at 10uM” value turn out when O=c1cc(CCl)nc2scc(-c3ccccc3)n12 was run?
The value was -0.908%.

CC(C)OP(=O)(c1ccc(N(C)C)cc1)C(O)c1ccncc1 (stereo not drawn) was tested. Which “hERG current change (%, negative = inhibition) at 10uM” value did it give?
The value was -14.8%.

With CCCCN1CC(C(=O)NC2CCCCC2)CC1=O (stereo not drawn) as the molecule, how does the “hERG current change (%, negative = inhibition) at 10uM” value read?
Its value is 13.2%.

Which “hERG current change (%, negative = inhibition) at 10uM” value does the source give for Cc1ccc(N2CC(C(=O)NC3CC3)CC2=O)cc1Cl (stereo not drawn) here?
Its value is 10%.

Which “hERG current change (%, negative = inhibition) at 10uM” value does the source give for COc1ccc(Cc2nnc(NC(=O)Nc3ccccc3F)s2)cc1OC here?
Its value is 8.55%.

For Cc1cc2cc(CNC(=O)c3cccs3)ccc2n1C, which “hERG current change (%, negative = inhibition) at 10uM” value is on record?
The value was -0.453%.

Which “hERG current change (%, negative = inhibition) at 10uM” value does the source give for CN(/N=C/c1ccc(Cl)cc1)c1ncc(Cl)cc1C(F)(F)F here?
The value was 19.7%.

How did the “hERG current change (%, negative = inhibition) at 10uM” value turn out when CCn1c(CNC(=O)c2ccc(OC)c(OC)c2)nnc1SCC(=O)Nc1ccc(OC)cc1 was run?
The value was 10.6%.

CCOC(=O)Cc1nnc2c(Nc3ccccc3F)nc3nonc3n12 was tested. Which “hERG current change (%, negative = inhibition) at 10uM” value did it give?
Its value is -12.7%.

COc1ccc(NC(=O)C2CC(=O)OC23CCOC(C)(C)C3)cc1 (stereo not drawn) was tested. Which “hERG current change (%, negative = inhibition) at 10uM” value did it give?
The value was 7.78%.

For O=C(O)CCCCCNS(=O)(=O)c1ccc(Cl)cc1, which “hERG current change (%, negative = inhibition) at 10uM” value is on record?
The value was 5.81%.

How did the “hERG current change (%, negative = inhibition) at 10uM” value turn out when O=C(NNC(=O)c1ccccc1F)c1ccc2nc[nH]c2c1 was run?
The value was -6.54%.

Which “hERG current change (%, negative = inhibition) at 10uM” value does the source give for Cc1cccc(NC(=O)COc2coc(CN3CCN(c4ccccc4)CC3)cc2=O)c1C here?
Its value is -28.6%.

From PMC4336329 (PLoS ONE, 2015)
